# Over roughly 4,500 sequences, “median log2 fold change of GCK-ALFA target abundance (FLAG IP / Myc IP barcode read proportion)” has its median near 0.078; the lowest 2% begin near -0.6. This is one part of the list.
# B1: GBRAP_95_7069 (protein)
# chain: SEDQEIADALADSLALYAEAGLAEHAARDLVALADEAKANPDLKVNFPATPEELRAALEKLAEIEPRETAIEVADILAKHAADPEHKKALLETRDRFLAE
# B2: GBRAP_95_7024 (protein)
# chain: EDDQLLVDSLAEVLDTYVDLGQEEEAERAARRLVAAMKEHGILPLPKDISVESAKIILDVAAEELDLAELEALAEQIIKATKNEEVKKYAAEKIAAKKAA
# B3: GBRAP_160_4859 (protein)
# chain: SAKLKEALAILEEAKAEALELIDESPASQHAAFAEAVAGDALLELIEKGLINEELEEKLAEIIDKLRARLRAAADASTEEHKALVEEAFEEMKKAVKELS
# B4: GBRAP_52_5923 (protein)
# chain: SEEEAKARAEAILEAALAGKKEEMEALIKEAVETFSDEEIETMIEELARLVAEKGPEHYDVFAEIMDLLLDAAEEAGRDVELIDYAIARGFGILYDAEQA
# B5: GBRAP_184_5030 (protein)
# chain: KVIEETIKADNLEELKAKLAELAEKVKDSKADLIVLLEIKNPTKEMVTTAIEMLGEIKKKGYASSVTVGFAEELSEELIDVAIETAKKEGVKVVLPISDE
# B6: GBRAP_137_3681 (protein)
# chain: MKVTIRIEKDGDLVEITVTIHDKEKGEEVAEKIEDLAVEVGALAISVEKEEDGTVTVTIWVPKEKEEELMKGILEILKDADEIEIIREENGKITKEVIKK
# B7: GBRAP_95_7045 (protein)
# chain: EDLALAAESDAEVLETAVDLGDKEAAERAAERLLELLLELPPDKVKLDLSVESVKVIIEVAKKKLDKETAIEALEKLAKFQTNEEAKKVIEEAIKELKAE
# B8: GBRAP_48_5819 (protein)
# chain: PVRDEEELEALVAETVEEMAELYEEAKAAGLSDEEILRMIRAELGDLALELEEAGYTAAADYLLDPENRDALAAELLAFFKAGDLEAAREHLLARLRAAE
# B9: GBRAP_125_3039 (protein)
# chain: SEEEQLEALARLARLLGLSEEEVEELVALARKHGIKGALIALLMAEGLEDLADLVEKLTDEQVARVLKELLAWLEAHPDITAEEAVAKLRELAKEALAAE
# B10: GBRAP_11_2626 (protein)
# chain: KKEILEEMAELAERLAELLERLLREGVDNEELRKEARETLERLEELVEKHGDEADKRLVRILRESFEESLEDEENAEAHLREALAAARVLAGNFLLDIEE
# B11: GBRAP_78_6727 (protein)
# chain: ELEEKIDKAIEHLNRAARLLLTLPRELSEDALGELVDAISDLVEAEEEGGDLEKLEEAKEHLERALALLEAKKDPRLAPAIAEVKAALELLEEAIKLAKE
# B12: GBRAP_95_7022 (protein)
# chain: EDDQLAAESDAEVLETAVDLGDEETARRAARRLAELVAADPAVRFPADLSPAAVRILIEAALEAFGKEEAAALLARLAAAAADPAVRALARAALAAVRAA
# B13: GBRAP_125_3006 (protein)
# chain: DLETIIALIRALLRRAGESESNIAEAERLAREYGGKNTLIAVALALGAEALADAAARLTDEQLIAVAREAIAWLEANPDLTPEEALARVLALAEAALAAA
# B14: GBRAP_78_6617 (protein)
# chain: ESKEEIERLLEEAARLLREVRRLEPAHADAAAEAEVLVGTALYMVDTGEESKEELEETVEEALEALEELRELLADADPRVQELVRRAEELVKEALELLRK
# B15: GBRAP_184_5351 (protein)
# chain: TTRSVVIEADTVEAAIAQLRAAVAAAKAAGETLELTIDVPINTVEDAKALMAALAEGAKAGVLKGTVGILNVSSDDEIIDTLVDGADEAGIRLVLALDEE
# B16: GBRAP_78_6683 (protein)
# chain: EVEEELDKAIEHLGKAAKILNKIGTEEALDLLGEVIDAAATVEEAHFGEANLEELEEALKRVKEALKEAKKIDTPEAKQAAKELEKAKEHLEKAIKLLKK
# B17: GBRAP_9_7120 (protein)
# chain: NPELIKKMAEVAKDMVEDVAEVVPELTEEERERFLKRIEELEKELLADKTATPEEAAERFKALVEEIRKEVEAKVGPELAAMVRAIADTALEEIEEIVEE
# B18: GBRAP_125_3019 (protein)
# chain: SREELVADLERIAAALGLSPADVAELGRLAREHGLKGALIALALALGEEEIAELLEKLSEEEVAEVVRRLAAWLDAHPDATPEEVRARLREIAREAVAAS
# B19: GBRAP_78_6717 (protein)
# chain: KLEELLDKAIETLNEAAKLALTLPEEKANEVLDLLVEAINLLEEILEPGVSKEEAIKLLKEAIELLKKAKELLGDSDPELKAAVEKALELAKEALKIAEE
# B20: GBRAP_78_6700 (protein)
# chain: KIEELIDKAIEELTKAARLAAKLPEEASTEILDLLVDALTDLEESEENGFDLEKLERALEEAEKALKLAKKLKTPTAKELAKELEKAIKYLKEAIKLKKE
# B21: GBRAP_14_3830 (protein)
# chain: KPTPEEIIKETLEEIAKELIKMFPEKKEEIEKGTKEILEEVLKLLKETGDVEKAFEKLREMSKKLVDEILADESETDKAAAKALVDGLVAEGELRYEELK
# B22: GBRAP_11_2825 (protein)
# chain: KKEKLKELAEKAEEIAEKLEALIASGAPTEEELEELRKEAKELLKLTKEHGTPAQTKLAEILLEEIEEAIANPEKREQYLQEALAFARVLEGQYLLDADE
# B23: GBRAP_52_6190 (protein)
# chain: MREEIRRRVEEILELVKAGRLEEARAAARELVASLNDEELELLVEVMRELALEAPLEDSDAVFRLAELIAEAIEEAGKDEVLAEDLLAAVAAALYEKELA
# B24: GBRAP_52_6228 (protein)
# chain: MREEMEALVREMLALVKAGDLEGARALAREAAETLSDEELELLIDALAELAEAAPLEEAPAFERLAEILAEEFERLGKDEVLVDLLEARVAAALYRREQA
# B25: GBRAP_160_4029 (protein)
# chain: SAKLEKLKKFAKEEFEEAKELIEGQTAEQRATIVSVTIGQIILEAEELGIDDDEMLDEIDKIGDEAVATILANPDLTEEERKELIKEAEKKVLEAIEKSK
# B26: GBRAP_11_2929 (protein)
# chain: KKEKLERAAELAREIAERLDAVIESGVVDPADLDEIERLLEELAELVEEYGDEYEKEVAEEARESLRRAREDPETALEHLRDARGWVIELEGLLLLRIEE
# B27: GBRAP_160_4655 (protein)
# chain: SAELEELLEKIREIFEEALEMMKGETHEQRVAIARVMKGDVILLLEESPSVSDETVDEVDEVMDELVETIEENPDWTDEEIEEKIDEALEEIEEILEEDF
# B28: GBRAP_184_5178 (protein)
# chain: MIVEKTIKVNNVEEAKEKMEEIKKEVKGKKAELVLIVEAEKFTVEIVETILSILKKMKEEGYVTKITLHLDGEMSEEVIDTAVKLAKEAGVNLVLALDEE
# B29: GBRAP_64_6492 (protein)
# chain: MEELKKERDEELEKAIEHLKKAAELNEEKKEEYLKLADKLEKAKELSPEEAADVLAEIAKELNKLLEEEKDNEETKEELSLALYHVSAALYLEAEIEELE
# Molecular target: GABARAP, O95166
# Sequence (O95166 whole entry, the tested form may be a part): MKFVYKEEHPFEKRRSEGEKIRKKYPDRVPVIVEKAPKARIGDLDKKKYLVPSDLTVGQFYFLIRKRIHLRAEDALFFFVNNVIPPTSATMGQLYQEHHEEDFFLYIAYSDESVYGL
# Experiment: median log2 fold change of GCK-ALFA target abundance (FLAG IP / Myc IP barcode read proportion) (log2 ratio); each designed protein is fused to an ALFA-tag nanobody in HEK293 cells to bring the named protein to FLAG-tagged glucokinase (GCK); Myc marks an untargeted standard; higher = target protein stabilised (more abundant)
# Settings: target protein: 3xFLAG-MCP-GCK-ALFA reporter; HEK293 landing pad (RPLP)
# In short: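 HEK293 landing-pad cells received a recombined binder library fused to the ALFA nanobody and were induced with 2 μg mL^−1 doxycycline, then transfected with a plasmid encoding a FLAG-tagged target and a Myc-tagged standard. Lysates were collected after 48 h for anti-FLAG and anti-Myc immunoprecipitation, and the circular RNA barcodes were reverse transcribed, amplified and sequenced. Target abundance for each binder is the median log2 ratio of FLAG to Myc barcode read proportions. Barcodes had to reach a proportion of at least 10^−7 in both replicates, each binder needed at least 3 barcodes per replicate, a pseudocount of 10^−6 was applied, and the two replicates were pooled.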
row,Binder,median log2 fold change
1,B1,0.354
2,B2,0.33
3,B3,-0.134
4,B4,-0.151
5,B5,-0.00468
6,B6,0.484
7,B7,0.0702
8,B8,-0.0194
9,B9,0.0672
10,B10,-0.0112
11,B11,0.0137
12,B12,0.0562
13,B13,-0.501
14,B14,-0.466
15,B15,0.0873
16,B16,0.0633
17,B17,-0.0499
18,B18,0.105
19,B19,0.211
20,B20,0.0998
21,B21,0.269
22,B22,0.0662
23,B23,0.00763
24,B24,-0.0188
25,B25,-0.0877
26,B26,0.221
27,B27,-0.612
28,B28,0.209
29,B29,0.0632

# Source: the supplement of paper PMC12632987
